# Where “and” joins values, the source holds several entries; their conditions need not be identical. Equal entries are not always repeated. This list was built around the results that the source calls inconclusive (neither active nor inactive); the mix of calls is not that of the screen. For some assays here: Potencies of inconclusive entries are doubtful fits and often do not repeat. Where a structure was tested more than once in an assay, its records may differ in their call. Calls of active or inactive are those of the source. Unless noted, the call rests on the fitted dose curve; in most records, active means well fitted curve in the direction sought with a large enough effect in the repeat runs; inconclusive means weak or mixed curves; inactive means no such curve, though single readings can be large; an effect the other way counts as inactive or inconclusive.
# Legend:
# [1] = qHTS assay to identify small molecule agonists of H2AX (AID 1224845; active means well fitted activation curve with a large enough effect in the signal ratio in the repeat runs, not every such curve was filed as active; inconclusive means weak or mixed curves; the % refers to the signal ratio; on activation (H2AX phosphorylation): on the % scale 0 is the no-effect control and ±100 the full control effect); settings: CHO-K1 phospho-H2AX Ser139 HTRF, 3 h; activation (H2AX phosphorylation): at 154 µM (top of the series) unless noted
# How it was run: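 Wild-type CHO-K1 cells, plated overnight, exposed 3hr at 37C to 15 concentrations (0.76% DMSO final). Lysed, then HTRF anti-pH2AX (S139) cryptate and anti-H2AX-d2 antibodies, 24 hr room temperature; 665/620 nm emission read.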
# [2] = qHTS assay to identify small molecule agonists of H2AX - cell viability counter screen (AID 1224847; calls by dose curve; further: nearly all actives have a fitted effect of over 30% in size)
# How it was run: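 Read-out: CellTiter-Glo luminescence, 30 min RT. Cells: wild-type CHO-K1, 1000/well, 10% FBS, plated overnight at 37C. Treatment: 15 concentrations, 3 hr, 37C, 0.76% DMSO.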
# [3] = qHTS RealTime-Glo MT Cell Viability Assay in HepG2 cells - 24 hour (AID 1224867); further: nearly all actives have a fitted effect of over 50% in size
# How it was run: (§1)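 Viability was tracked continuously by NanoLuc luminescence from prosubstrate reduced by living HepG2 cells, at successive time points over 40 h of compound exposure. Cells with reagent were preincubated 5 h at 37 °C before compound addition.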
# [4] = qHTS RealTime-Glo MT Cell Viability Assay in HEK293 cells - 16 hour (AID 1224872); further: nearly all actives have a fitted effect of over 50% in size
# How it was run: (§2)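 Viability tracked continuously by luminescence as live cells reduce a prosubstrate for NanoLuc; HEK293 cells preincubated 5 h, compound-treated at 37 C, and read at 0, 8, 16, 24, 32 and 40 h.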
# [5] = A CellTox Green Cytotoxicity Assay to monitor cytotoxicity in HepG2 cells - 16 hour (AID 1224876); further: nearly all actives have a fitted effect of over 45% in size
# How it was run: (§3)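 Continuous culture of HepG2 cells with a membrane-impermeant DNA dye; rising fluorescence marks dead cells. Compound exposure lasted up to 40 h at 37 C, with reads every 8 h from 0 h.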
# [6] = A CellTox Green Cytotoxicity Assay to monitor cytotoxicity in HepG2 cells - 40 hour (AID 1224879); further: nearly all actives have a fitted effect of over 40% in size
# How it was run: as §3
# [7] = A CellTox Green Cytotoxicity Assay to monitor cytotoxicity in HEK293 cells - 32 hour (AID 1224881); further: nearly all actives have a fitted effect of over 40% in size
# How it was run: (§4)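 Each value comes from one timepoint of a single continuous run in which HEK293 cells with CellTox Green were exposed to compound for up to 40 h at 37 C, dye fluorescence rising with cell death.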
# [8] = qHTS assay to identify small molecule antagonists of the estrogen related receptor (ERR) signaling pathway from Tox21 library (AID 1224848); further: nearly all actives have a fitted effect of over 50% in size
# How it was run: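 ERR reporter cell line (from NTP) seeded 2,000 cells/well, rested 6 h at 37 C/5% CO2, then pin-dosed with compounds in DMSO. After 18 h at 37 C, ONE-Glo added; luminescence read after 30 min at room temperature.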
# [9] = A CellTox Green Cytotoxicity Assay to monitor cytotoxicity in HEK293 cells - 40 hour (AID 1224871); further: nearly all actives have a fitted effect of over 45% in size
# How it was run: as §4
# [10] = A CellTox Green Cytotoxicity Assay to monitor cytotoxicity in HEK293 cells - 24 hour (AID 1224875); further: nearly all actives have a fitted effect of over 45% in size
# How it was run: as §4
# [11] = qHTS RealTime-Glo MT Cell Viability Assay in HEK293 cells - 0 hour (AID 1224880); further: nearly all actives have a fitted effect of over 45% in size
# How it was run: (§5)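 qHTS format; HEK293 cells with NanoLuc/prosubstrate reagent, 37 C/5% CO2 for 5 h pre-dosing; compounds 23 nL in DMSO; luminescence at each time point reflects viable cells.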
# [12] = qHTS RealTime-Glo MT Cell Viability Assay in HEK293 cells - 40 hour (AID 1224874); settings: RealTime-Glo luminescence; max response: stronger effect = lower value; further: nearly all actives have a fitted effect of over 50% in size; on max response: on the % scale 0 is the no-effect control and ±100 the full control effect
# How it was run: as §5
# [13] = qHTS RealTime-Glo MT Cell Viability Assay in HepG2 cells - 32 hour (AID 1224877); further: nearly all actives have a fitted effect of over 55% in size
# How it was run: as §1
# [14] = A CellTox Green Cytotoxicity Assay to monitor cytotoxicity in HepG2 cells - 24 hour (AID 1224878); further: nearly all actives have a fitted effect of over 45% in size
# How it was run: as §3
# [15] = qHTS RealTime-Glo MT Cell Viability Assay in HepG2 cells - 40 hour (AID 1224870); further: nearly all actives have a fitted effect of over 50% in size
# How it was run: (§6)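 HepG2 cells (600/well) mixed with RealTime-Glo MT reagent, settled 5 h at 37 C/5% CO2 before compound addition. Nonlytic NanoLuc luminescence from viable-cell prosubstrate reduction read repeatedly during 40 h treatment at 37 C.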
# [16] = A CellTox Green Cytotoxicity Assay to monitor cytotoxicity in HEK293 cells - 0 hour (AID 1224869); settings: CellTox Green fluorescence; further: nearly all actives have a fitted effect of over 50% in size
# How it was run: as §4
# [17] = qHTS RealTime-Glo MT Cell Viability Assay in HepG2 cells - 8 hour (AID 1224873); further: nearly all actives have a fitted effect of over 55% in size
# How it was run: as §6
# [18] = qHTS RealTime-Glo MT Cell Viability Assay in HEK293 cells - 32 hour (AID 1224868); further: nearly all actives have a fitted effect of over 50% in size
# How it was run: as §2
# Potency means the concentration at half of the fitted maximal effect; tags describe the fitted curve by direction and shape or compound fluorescence and quenching.
smiles,measurement,setting,value
COc1ccc(CCN2CCC(Nc3nc4ccccc4n3Cc3ccc(F)cc3)CC2)cc1,Potency,[1],"inconclusive: 41 µM [activator, single point] and inconclusive: 55.2 µM [activator, single point]"
same,Potency,[2],"inconclusive: 55.2 µM [cytotoxic, single point]"
same,Potency,[3],active: 17.8 µM and active: 13.4 µM
same,Potency,[4],active: 8.9 µM and active: 9.52 µM
same,Potency,[5],active: 31.6 µM and active: 21.3 µM
same,Potency,[6],active: 15.8 µM and active: 8.49 µM
same,Potency,[7],active: 14.1 µM and active: 23.9 µM
CCCCC(CC)CN1CN(CC(CC)CCCC)CC(C)(N)C1 (stereo unspecified),Potency,[1],"inconclusive: 61.9 µM [activator, single point]"
same,Potency,[2],"inconclusive: 55.2 µM [cytotoxic, single point]"
same,Potency,[8],"inconclusive: 26.6 µM [inhibitor, partial curve, poor fit]"
same,Potency,[9],active: 10.7 µM
same,Potency,[4],active: 9.52 µM
same,Potency,[10],active: 10.7 µM
same,Potency,[11],"inconclusive: 10.7 µM [rising, full curve]"
CC(=O)N1CCN(c2ccc(OC[C@H]3CO[C@](Cn4ccnc4)(c4ccc(Cl)cc4Cl)O3)cc2)CC1,Potency,[1],"inconclusive: 50.5 µM [rising, partial curve]"
same,Potency,[2],active: 101 µM
same,Potency,[3],active: 49 µM
same,Potency,[4],active: 21.9 µM
same,Potency,[12],active: 21.9 µM
same,Potency,[5],"inconclusive: 54.9 µM [activator, single point]"
same,Potency,[13],active: 49 µM
same,Potency,[14],"inconclusive: 49 µM [activator, partial curve, poor fit]"
same,Potency,[11],"inconclusive: 43.6 µM [falling, partial curve]"
same,Potency,[7],active: 49 µM
CCCCCCCCCCn1cc[n+](CCCCCCCCCC)c1C,Potency,[1],"inconclusive: 45.1 µM [activator, single point]"
same,Potency,[2],active: 10.1 µM
same,Potency,[15],active: 19.5 µM
same,Potency,[10],active: 17.4 µM
same,Potency,[6],active: 15.5 µM
same,Potency,[7],active: 19.5 µM
CC1CC(OC(=O)c2ccccc2O)CC(C)(C)C1 (stereo unspecified),Potency,[1],inconclusive: 112 µM [activator]
same,Potency,[2],"inconclusive: 112 µM [cytotoxic, single point]"
same,Potency,[9],"active: 48.5 µM and inconclusive: 26.8 µM [activator, single point]"
same,Potency,[10],"inconclusive: 48.5 µM [activator, single point] and inconclusive: 26.8 µM [activator, partial curve, poor fit]"
same,Potency,[7],"inconclusive: 48.5 µM [activator, single point] and inconclusive: 26.8 µM [activator, single point]"
Oc1ccc(C2(c3ccc(O)cc3)CC3CC2C2CCCC32)cc1 (stereo unspecified),Potency,[1],"inconclusive: 122 µM [activator, single point]"
same,Potency,[2],active: 86.2 µM
same,Potency,[9],"inconclusive: 52.8 µM [activator, partial curve, poor fit]"
same,Potency,[4],"inconclusive: 41.9 µM [cytotoxic, partial curve]"
same,Potency,[12],active: 41.9 µM
same,Potency,[10],"inconclusive: 52.8 µM [activator, single point]"
same,Potency,[6],"inconclusive: 59.2 µM [activator, single point]"
same,Potency,[7],"inconclusive: 47 µM [activator, single point]"
CCCCCCC(C)OC(=O)COc1nc(F)c(Cl)c(N)c1Cl (stereo unspecified),Potency,[1],inconclusive: 113 µM [activator]
same,Potency,[2],active: 113 µM
same,Potency,[8],"inconclusive: 68.6 µM [inhibitor, partial curve, poor fit]"
same,Potency,[10],inactive
same,Potency,[5],"inconclusive: 49 µM [activator, partial curve, poor fit]"
same,Potency,[14],"inconclusive: 49 µM [activator, single point]"
same,Potency,[6],"inconclusive: 54.9 µM [activator, single point]"
same,Potency,[7],"inconclusive: 24.5 µM [activator, full curve, poor fit]"
CCCOc1sc(C(=O)N2CCC(c3cc(CN)ccc3F)CC2)c(C)c1Br,Potency,[1],"inconclusive: 46.3 µM [activator, single point]"
same,Potency,[2],active: 46.3 µM
same,Potency,[3],active: 22.5 µM
same,Potency,[4],active: 20 µM
same,Potency,[12],active: 31.8 µM
same,Potency,[10],active: 22.5 µM
same,Potency,[14],active: 20 µM
same,Potency,[11],"inconclusive: 40 µM [rising, partial curve]"
NC(=O)N/N=C/c1ccc([N+](=O)[O-])o1,Potency,[1],inconclusive: 113 µM
same,Potency,[2],"inconclusive: 2.01 µM [cytotoxic, single point]"
same,Potency,[8],"inconclusive: 26.6 µM [inhibitor, partial curve, poor fit]"
same,Potency,[4],"inconclusive: 60.3 µM [rising, single point]"
same,Potency,[5],"inconclusive: 21.9 µM [activator, single point]"
same,Potency,[14],"inconclusive: 21.9 µM [activator, single point]"
same,Potency,[6],"inconclusive: 54.9 µM [activator, partial curve, poor fit]"
same,Potency,[11],"inconclusive: 60.3 µM [rising, single point]"
O=C(Oc1cccc2cccnc12)c1ccccc1,Potency,[1],active: 9.82 µM
same,Potency,[2],"inconclusive: 13.9 µM [rising, full curve]"
same,Potency,[8],active: 0.133 µM
same,Potency,[9],"inconclusive: 26.8 µM [activator, single point]"
same,max response,[12],inactive: -33.8%
same,Potency,[5],"inconclusive: 0.601 µM [activator, partial curve, poor fit]"
same,Potency,[14],"inconclusive: 0.477 µM [activator, partial curve, poor fit]"
same,Potency,[6],active: 0.477 µM
same,Potency,[7],"inconclusive: 26.8 µM [activator, single point]"
COc1ccccc1OCCNCC(O)COc1cccc2[nH]c3ccccc3c12 (stereo unspecified),Potency,[1],inactive
same,Potency,[2],active: 49.2 µM
same,Potency,[15],active: 23.9 µM
same,Potency,[9],"inconclusive: 26.8 µM [activator, single point]"
same,Potency,[13],active: 23.9 µM
same,Potency,[6],active: 23.9 µM
same,Potency,[7],"inconclusive: 26.8 µM [activator, single point]"
Nc1cc(Cl)c(-c2cc(Cl)c(N)cc2Cl)cc1Cl,activation (H2AX phosphorylation),[1],inconclusive: 9.57% and inconclusive: 8.68%
same,Potency,[2],active: 101 µM and active: 113 µM
same,Potency,[16],"inconclusive: 54.9 µM [activator, partial curve, poor fit]"
same,Potency,[4],"active: 24.5 µM and inconclusive: 24.5 µM [cytotoxic, single point]"
same,Potency,[17],"inconclusive: 43.6 µM [falling, single point]"
same,Potency,[14],active: 54.9 µM
same,Potency,[6],active: 4.36 µM and active: 54.9 µM
CC(C)(C)NC(=O)[C@@H]1C[C@@H]2CCCC[C@@H]2CN1C[C@@H](O)[C@H](Cc1ccccc1)NC(=O)[C@H](CC(N)=O)NC(=O)c1ccc2ccccc2n1,Potency,[1],active: 51.2 µM
same,Potency,[2],active: 51.2 µM
same,Potency,[3],active: 55.7 µM
same,Potency,[4],active: 24.9 µM
same,Potency,[17],"inconclusive: 49.6 µM [falling, partial curve]"
same,Potency,[10],"inconclusive: 49.6 µM [activator, single point]"
same,Potency,[5],"inconclusive: 55.7 µM [activator, single point]"
same,Potency,[13],"inconclusive: 55.7 µM [cytotoxic, single point]"
same,Potency,[6],active: 49.6 µM
same,Potency,[7],"inconclusive: 55.7 µM [activator, single point]"
O=C(OCC1CCC2OC2C1)C1CCC2OC2C1 (stereo unspecified),Potency,[1],inactive
same,Potency,[2],inactive
same,Potency,[4],inactive
same,Potency,[6],inactive
CC/C(=C(\c1ccccc1)c1ccc(OCCN(C)C)cc1)c1ccccc1,Potency,[1],active: 50.5 µM
same,Potency,[3],"inconclusive: 55.3 µM [falling, single point]"
same,Potency,[18],active: 22.1 µM [middle of 5 runs]
same,Potency,[9],active: 24.7 µM [middle of 5 runs]
same,Potency,[4],active: 34.6 µM [middle of 5 runs]
same,Potency,[5],"inconclusive: 55.4 µM [activator, single point]"
same,Potency,[13],active: 30.9 µM [middle of 5 runs]
same,Potency,[7],active: 35 µM [middle of 5 runs]
Cc1cc(OCCOCC[N+](C)(C)Cc2ccccc2)ccc1C(C)(C)CC(C)(C)C,activation (H2AX phosphorylation),[1],inconclusive: 10.7% [at 70.9 µM]
same,Potency,[10],active: 21.7 µM and active: 23.9 µM
same,Potency,[14],active: 17.3 µM and active: 10.7 µM
same,Potency,[7],active: 21.7 µM and active: 23.9 µM
